The text below walks through data of PubChem BioAssay AID463173 (ICCB-Longwood Screening Facility, Harvard Medical School, 2010).

In all, about 52,000 compounds went through this assay and about 4,300 (8.3%) were called active. Cut-off read from the data, not from the text of the source: active = survival mostly below about 52% (no sharp cut-off); inactive = mostly above about 56%. The list shows a part of the results.

The assay relates to DeltatarO mutant. Briefly: growth inhibition of S. aureus wild type versus tarO mutant, primary screen, teichoic acid synthesis inhibitors, RN4220, OD600 (AID 463173). Particulars: OD600, 18 h, hits give low values, screened at 18.75 µg/mL (by protocol).
Take `O=C(CSc1nc2ccsc2c(=O)n1Cc1ccccc1Cl)NCc1ccc(Cl)cc1`: the survival is inactive: 101%. With `O=C(CSc1nc2ccccc2n1Cc1c(F)cccc1Cl)N1CCN(c2ccc(F)cc2)CC1`, the survival is inactive: 50%.

Regarding `COc1ccc(NC(=O)CN2C(=O)C3(SCC(=O)N3c3cccc(OC)c3)c3ccccc32)cc1` (stereo unspecified), the survival is inactive: 89%. Consider `Cc1ccc(CNC(=O)C(C)n2ccc3cc(S(=O)(=O)N4CCCC4)ccc32)cc1` (stereo unspecified), for which the survival is inactive: 102%. For the compound `Cc1ccc2c(=O)c(C(=O)c3ccc(F)cc3)cn(CC(=O)NCCc3ccccc3)c2n1`, the survival is inactive: 116%. Turning to `CCOc1ccc(C(=O)Nc2ccc3oc(-c4cccnc4)nc3c2)cc1`, the survival is inactive: 77%.

Turning to `COc1ccc(CN(Cc2ccco2)c2cnc(S(C)(=O)=O)nc2C(=O)Nc2ccc(C)cc2C)cc1`, the survival is inactive: 48%. The same measure for `Cc1c(C(=O)NCc2ccccc2Cl)sc2nc[nH]c(=O)c12`: inactive: 89%; for `Cc1ccc(C)c(CN2C(=O)c3ccccc3S(=O)(=O)c3ccc(C(=O)NCc4ccccc4)cc32)c1`: inactive: 75%; for `Cc1cccc(OCCCn2c(CCNC(=O)C(C)(C)C)nc3ccccc32)c1`: inactive: 77%. As for `CCCN1CCc2nc(N3CCN(c4ncccn4)CC3)ncc2C1`, the survival is inactive: 75%. Take `Cc1cccc(OCCSc2nc3ccc(NC(=O)COc4ccccc4)cc3s2)c1`: the survival was inactive: 78%. As for `CCn1cc2nc(SCc3cc(C)ccc3C)n(Cc3ccc(OC)cc3)c(=O)c2n1`, the survival is inactive: 74%. As to `CCc1ccc(N(C)S(=O)(=O)c2ccc3[nH]cc(C(=O)NCC4CCCO4)c(=O)c3c2)cc1` (stereo unspecified), the survival was inactive: 67%. Turning to `N#Cc1ccccc1NC(=O)c1cnc(N2CCOCC2)c2ccccc12`, the survival was inactive: 89%. As for `CC(=O)N1CCOc2cc(S(=O)(=O)N(C)Cc3ccccc3)c(Cl)cc21`, the survival is inactive: 89%. The same measure for `CCC(=O)N1CCc2cc(Br)cc(S(=O)(=O)CCC(=O)NCc3ccc(F)cc3)c21`: inactive: 80%; for `COc1ccccc1-c1nnc(C2CCN(C(=O)c3ccc(Cl)cc3)CC2)o1`: inactive: 80%; for `COc1cccc2c1Oc1ncccc1N(C(=O)CCC(=O)NCc1ccc(C)cc1)C2`: inactive: 81%.

Regarding `Cc1csc2nc(COC(=O)CNC(=O)c3ccccc3Cl)cc(=O)n12`, the survival was inactive: 95%. Consider `COC(=O)CCCCC1SCC(NC(=O)c2ccccc2)C1OC(C)=O` (stereo unspecified), for which the survival is inactive: 95%. With `O=C(Nc1c(C(=O)N2CCN(c3ccccc3F)CC2)oc2ccccc12)c1ccccc1F`, the survival was inactive: 75%. The same measure for `Cc1ccc(-n2nc3c(=O)n(CCCC(=O)NCc4ccccc4F)nc(C)c3c2C)cc1`: inactive: 67%. In the case of `CN1CCN(CCCNC(=O)c2ccc3nc(Cc4ccccc4)oc3c2)CC1`, the survival is inactive: 91%.

`O=C(CN1CCCN(Cc2ccc(F)cc2)S1(=O)=O)NCc1ccccc1Cl`: the survival was inactive: 88%. The same measure for `CCn1cc(C(=O)NCc2ccc(C)cc2)c(=O)c2cc(S(=O)(=O)N3CCc4ccccc4C3)ccc21`: inactive: 67%; for `CCC12CN3CC(CC)(CN(C1)C3c1cc(Br)ccc1OC)C2=O` (stereo unspecified): inactive: 88%; for `Cc1nc(-c2ccc(S(=O)(=O)N3CCN(c4ccc(F)cc4)CC3)cc2)co1`: inactive: 89%. Consider `CC(=O)N1CCCc2cc(S(=O)(=O)Nc3ccc(C)c(F)c3)ccc21`, for which the survival is inactive: 83%. For the compound `CCOc1ccc(NC(=O)CN2C(=O)C3(SCC(=O)N3c3ccc(F)cc3)c3ccccc32)cc1` (stereo unspecified), the survival was inactive: 96%.

Turning to `COc1ccc(C2C(=O)N(C3CCC(C)CC3)CC(=O)N2CCC2=CCCCC2)cc1OC` (stereo unspecified), the survival was active: -1%. Consider `COc1ccc(CNc2oc(-c3ccc(COc4ccc(OC)cc4)o3)nc2C#N)cc1`, for which the survival was inactive: 101%. Turning to `Cn1nnnc1SCCCNCc1cccc(OCc2ccccc2Cl)c1`, the survival is inactive: 60%. On to `CCOc1ccccc1NC(=O)Cn1c2ncccc2c(=O)n1-c1ccc(C)c(C)c1`, for which the survival was inactive: 85%. The figure for `CCc1ccc2nc(N3CCN(C(=O)C4CC4)CC3)sc2c1` is inactive: 94%; for `CCN1C(=O)C(Cc2nc3ccccc3c(=O)n2-c2ccccc2)c2cc(Br)ccc21` (stereo unspecified) it is inactive: 60%.

For `Cc1oc(-c2ccc(C(=O)Nc3ccccc3F)cc2)nc1COc1ccccc1`, the survival is inactive: 94%. The same measure for `COc1ccc(C)cc1NC(=O)CSc1nc(=O)n(Cc2ccccn2)c2c1CCC2`: inactive: 125%. The same measure for `O=C1c2ccccc2C(=O)N1CSC1=NCCS1`: inactive: 81%; for `CCc1nn(CC(=O)N2CCN(c3cccc(C(F)(F)F)c3)CC2)c(=O)c2cccn12`: inactive: 104%. In the case of `CCOc1ccc2[nH]c(=O)c(CN(Cc3ccccc3)C(=O)N3CCOCC3)cc2c1`, the survival is inactive: 105%.

Take `CC(=O)N1CCc2cc(S(=O)(=O)NC(Cc3ccccc3)C(=O)Nc3ccc(Cl)cc3)ccc21` (stereo unspecified): the survival is inactive: 72%. The same measure for `Cc1cc(C)c(OCC(=O)N(Cc2cccc(F)c2)Cc2ccco2)c(C)c1`: inactive: 77%.

Turning to `CCOC(=O)c1ccc(NS(=O)(=O)c2ccc3[nH]c4c(c3c2)CCCCC4)cc1`, the survival was inactive: 97%. For the compound `Cc1cccc(NC(=O)Cn2c(=O)oc3cc(S(=O)(=O)NC4CCCC4)ccc32)c1`, the survival is inactive: 82%. The same measure for `N#Cc1cc2cc3c(cc2nc1SCc1cccnc1)OCCO3`: inactive: 86%. Take `O=C(N/N=C/c1ccccc1)C(O)c1ccccc1` (stereo unspecified): the survival was inactive: 95%. Regarding `Cc1cc(NC(=O)C2C3C(=O)N(CCC(C)C)C(C(=O)NC(C)(C)C)C34C=CC2(C)O4)no1` (stereo unspecified), the survival is inactive: 86%. `Cc1ccc(-c2nn(-c3ccccc3)c3[nH]c(=O)c(CNCCN4CCOCC4)cc23)cc1`: the survival was inactive: 115%. In the case of `CCNc1nc(NC(C)C)nc(C(=O)O)n1`, the survival was inactive: 94%. As to `CCN(CCCNC(=O)c1cc(Nc2ccccc2OC)nc2ccccc12)c1cccc(C)c1`, the survival is inactive: 79%.

Take `COc1ccc(-c2noc(C3CC(=O)N(c4ccccc4)C3)n2)c(OC)c1` (stereo unspecified): the survival was inactive: 101%. The same measure for `COc1ccc(OC)c(CCNC(=O)c2c3c(nc4ccccc24)C(=O)N(C2CCCCC2)C3)c1`: inactive: 57%. The figure for `Cc1cc(C)c(NC(=O)COc2ccc3c(C)cc(=O)oc3c2)c(C)c1` is inactive: 72%; for `O=C(CSc1nc2c([nH]c3ccccc32)c(=O)n1-c1ccc(Cl)cc1)N1CCCC1` it is inactive: 86%. Consider `O=S(=O)(NCC1OCCc2ccccc21)c1ccccc1` (stereo unspecified), for which the survival was inactive: 91%.
